Measured values published in the supplement of paper PMC9446081.
In all, about 39,000 compounds went through this assay and about 220 (0.56%) showed activity. The list shows a part of the results.

Each molecule was assayed on Escherichia coli K-12 BW25113 (assay: relative growth (OD600 normalised to plate interquartile mean) (fraction); higher = less growth inhibition, active = 0.2 or less). Conditions: 50 µM; LB; incubation time: overnight (16-24 h).
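Also: static incubation at 37 °C against the wild-type strain, values averaged over two biological replicates.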

SMILES | relative growth
C[C@H]1CN([C@@H](C)CO)C(=O)c2ccccc2-c2ccccc2CO[C@H]1CN(C)S(=O)(=O)c1ccc(C(F)(F)F)cc1 | inactive: 1.04
CNC(=O)[C@@H](NC(=O)[C@H](CC(C)C)[C@H](O)C(=O)NO)C(C)(C)C | inactive: 0.916
C[C@H]1CCCCO[C@H](CN(C)C(=O)C2CCCCC2)[C@@H](C)CN([C@@H](C)CO)C(=O)c2cc(NC(=O)Nc3ccc(F)cc3)ccc2O1 | inactive: 0.976
C[C@@H]1CN([C@@H](C)CO)C(=O)c2cc(NC(=O)Nc3ccc(C(F)(F)F)cc3)ccc2O[C@@H](C)CCCCO[C@@H]1CN(C)C(=O)C1CCCCC1 | inactive: 1.07
COCCOC(=O)N1C(=O)[C@@]2(c3ccccc31)[C@H](C(=O)N1CCCCCCC1)[C@H]1C(=O)O[C@H](c3ccccc3)[C@H](c3ccccc3)N1[C@@H]2c1ccc(OCCO)cc1 | inactive: 1.05
CO[C@@H]1CN(C)C(=O)c2ccc(NC(=O)C3CC3)cc2OC[C@H](C)N(C(=O)C2CCOCC2)C[C@H]1C | inactive: 0.966
COc1ccc(NC(=O)Nc2ccc3c(c2)C(=O)N([C@H](C)CO)C[C@@H](C)[C@H](CN(C)Cc2ccncc2)OCCCC[C@@H](C)O3)cc1 | inactive: 1.01
C[C@@H]1CN([C@@H](C)CO)C(=O)c2cccc(NS(C)(=O)=O)c2O[C@@H]1CN(C)S(=O)(=O)c1ccccc1 | inactive: 0.99
O=C(C[C@H]1CC[C@@H]2[C@H](COC[C@@H](O)CN2C(=O)Nc2ccc(C(F)(F)F)cc2)O1)NCc1ccncn1 | inactive: 1
C[C@@H]1CN([C@H](C)CO)C(=O)c2cc(NS(=O)(=O)c3ccc(Cl)cc3)ccc2O[C@@H]1CN(C)S(=O)(=O)c1cn(C)cn1 | inactive: 1
CCCN(C)C[C@@H]1OCCCC[C@H](C)Oc2ccc(NC(=O)Cc3ccccc3)cc2C(=O)N([C@@H](C)CO)C[C@@H]1C | inactive: 0.982
COC(=O)C[C@H]1CC[C@@H]2[C@H](COC[C@@H](O)CN2S(=O)(=O)c2cn(C)cn2)O1 | inactive: 0.966
C[C@H]1CN([C@@H](C)CO)C(=O)c2c(c3ccccc3n2C)-c2ccccc2CO[C@@H]1CN(C)Cc1ccc(F)cc1 | inactive: 0.966
COc1ccc(S(=O)(=O)N2C[C@@H](O)COC[C@H]3O[C@H](CC(=O)NCCN4CCCCC4)CC[C@@H]32)cc1 | inactive: 0.996
CN(C)CCCCNC(=O)[C@H]1C[C@H]2C(=O)N[C@@H](CCCCN)C(=O)N2[C@H]1c1ccc(O)cc1 | inactive: 0.971
COc1cccc(S(=O)(=O)N[C@@H]2C=C[C@@H](CC(=O)NC3CCC3)O[C@H]2CO)c1 | inactive: 1.01
C[C@@H]1CN([C@H](C)CO)C(=O)Cc2cc(NC(=O)C3CCCCC3)ccc2O[C@H]1CN(C)Cc1ccc(C(=O)Nc2ccccc2N)cc1 | inactive: 0.979
CO[C@@H]1CN(C)C(=O)c2cc(NS(=O)(=O)CC(F)(F)F)ccc2OC[C@@H](C)N(C(=O)c2ccc3c(c2)OCO3)C[C@H]1C | inactive: 0.937
CO[C@@H]1CCN(C(=O)CS(C)(=O)=O)[C@@H]2CCO[C@H]21 | inactive: 1.03

SMILES | relative growth
C[C@H](CO)N1C[C@H](C)[C@@H](CN(C)C(=O)C2CCCCC2)OCCCC[C@H](C)Oc2ccc(NC(=O)Nc3cccc4ccccc34)cc2C1=O | inactive: 1.04
C[C@H]1CCCCO[C@H](CN(C)CC2CCCCC2)[C@@H](C)CN([C@@H](C)CO)C(=O)c2cc(NS(=O)(=O)c3ccc(F)cc3)ccc2O1 | inactive: 0.966
C[C@H]1CN([C@@H](C)CO)C(=O)Cc2cc(NC(=O)Nc3ccc(C(F)(F)F)cc3)ccc2O[C@H]1CN(C)S(=O)(=O)c1ccc(Cl)cc1 | inactive: 1.02
C[C@H](CO)N1C[C@H](C)[C@@H](CN(C)C(=O)Nc2ccccc2)Oc2ccc(NS(C)(=O)=O)cc2C1=O | inactive: 0.992
C[C@@H]1CN([C@H](C)CO)S(=O)(=O)c2ccc(C#Cc3ccccc3)cc2O[C@@H]1CN(C)S(=O)(=O)c1ccccc1F | inactive: 1.03
C[C@H](CO)N1C[C@H](C)[C@H](CN(C)Cc2ccc(-c3ccccc3)cc2)Oc2ccc(NC(=O)Nc3ccc4c(c3)OCO4)cc2CC1=O | inactive: 1.02
CC(C)NC(=O)N(C)C[C@H]1Oc2ccc(NC(=O)Cc3ccccc3)cc2CC(=O)N([C@@H](C)CO)C[C@@H]1C | inactive: 0.976
C=C(C)c1c2c(c(Cl)c3ccccc13)C[N+](CC)(CC)C2 | inactive: 1.04
CCc1nc2[nH]c(C)cc(=O)n2n1 | inactive: 0.901
C[C@H](CO)N1C[C@H](C)[C@H](CN(C)S(=O)(=O)c2ccccc2)Oc2ccc(NS(C)(=O)=O)cc2CC1=O | inactive: 1.03
COc1ccc(CCNC(=O)[C@@]2(Sc3ccc(C)cc3)CC(=O)N(Cc3ccccc3Cl)[C@@H]2c2ccc(CO)cc2I)cc1 | inactive: 0.991
COc1cc(/C=C/C(=O)N(C)CCN(C)C(=O)/C=C/c2cc(OC)c(OC)c(OC)c2)cc(OC)c1OC | inactive: 0.978
CC(C)(C)[C@H]1C=C(C(=O)N2CCCCCCC2)O[C@@H](OCc2ccc(COC(=O)NCCCCCC(=O)NO)cc2)C1 | inactive: 0.992
C[C@@H]1CN([C@H](C)CO)C(=O)c2cccc(NC(=O)Nc3cccc4ccccc34)c2O[C@H]1CN(C)C(=O)NC1CCCCC1 | inactive: 0.975
C[C@H]1CN([C@@H](C)CO)C(=O)c2cc(C#CC3(O)CCCC3)cnc2O[C@H]1CN(C)S(=O)(=O)c1ccccc1 | inactive: 1.02
C[C@@H]1CN([C@@H](C)CO)C(=O)c2cccc(NC(=O)c3cnccn3)c2O[C@H]1CN(C)S(=O)(=O)c1ccc(Cl)cc1 | inactive: 0.971
COc1cccc(NC(=O)N2C[C@H](O)COC[C@H]3O[C@H](CC(=O)NC4Cc5ccccc5C4)CC[C@@H]32)c1 | inactive: 0.932
Cn1ncc2c(NN3C(=O)CCC3=O)ncnc21 | inactive: 1.02
Cc1noc(C)c1NC(=O)Nc1cccc2c1O[C@@H](CN(C)S(=O)(=O)c1ccccc1)[C@H](C)CN([C@@H](C)CO)C2=O | inactive: 1.01
